{"source": "the antibiotic and cytotoxicity screens of Wong et al. (2023)", "key": {"HSkMC": {"test_system": "HSkMC", "assay": "cytotoxicity call (relative viability < 0.9)", "conditions": "10 µM"}, "HepG2": {"test_system": "HepG2", "assay": "cytotoxicity call (relative viability < 0.9)", "conditions": "10 µM"}, "S. aureus RN4220": {"test_system": "S. aureus RN4220", "assay": "growth inhibition call (relative growth <= 0.2)", "conditions": "50 µM"}}, "note": "Some of the results follow.", "data": [{"smiles": "C[C@@H]1CCCCO[C@H](CN(C)S(=O)(=O)c2ccc(Cl)cc2)[C@@H](C)CN([C@H](C)CO)C(=O)c2cc(NC(=O)Nc3ccccc3)ccc2O1", "values": [{"measurement": "cytotoxicity call", "setting": "HSkMC", "value": "inactive"}, {"measurement": "cytotoxicity call", "setting": "HepG2", "value": "inactive"}, {"measurement": "growth inhibition call", "setting": "S. aureus RN4220", "value": "inactive"}]}, {"smiles": "COc1ccc(S(=O)(=O)N(C)C[C@@H]2Oc3ccc(NC(=O)CCCN(C)C)cc3C(=O)N([C@H](C)CO)C[C@@H]2C)cc1", "values": [{"measurement": "cytotoxicity call", "setting": "HSkMC", "value": "inactive"}, {"measurement": "cytotoxicity call", "setting": "HepG2", "value": "inactive"}, {"measurement": "growth inhibition call", "setting": "S. aureus RN4220", "value": "inactive"}]}, {"smiles": "C[C@H]1CN([C@@H](C)CO)C(=O)c2cc(C#CCN(C)C)cnc2O[C@H]1CN(C)C(=O)CCN1CCCCC1", "values": [{"measurement": "cytotoxicity call", "setting": "HSkMC", "value": "inactive"}, {"measurement": "cytotoxicity call", "setting": "HepG2", "value": "inactive"}, {"measurement": "growth inhibition call", "setting": "S. aureus RN4220", "value": "inactive"}]}, {"smiles": "COc1ccc(S(=O)(=O)N(C)C[C@H]2OCCCC[C@@H](C)Oc3ccc(NS(=O)(=O)c4ccc(Cl)cc4)cc3C(=O)N([C@@H](C)CO)C[C@H]2C)cc1", "values": [{"measurement": "cytotoxicity call", "setting": "HSkMC", "value": "inactive"}, {"measurement": "cytotoxicity call", "setting": "HepG2", "value": "active"}, {"measurement": "growth inhibition call", "setting": "S. aureus RN4220", "value": "inactive"}]}, {"smiles": "C[C@H]1CN([C@@H](C)CO)C(=O)Cc2cc(NC(=O)Cc3cn(C)c4ccccc34)ccc2O[C@@H]1CN(C)CC1CCCCC1", "values": [{"measurement": "cytotoxicity call", "setting": "HSkMC", "value": "inactive"}, {"measurement": "cytotoxicity call", "setting": "HepG2", "value": "inactive"}, {"measurement": "growth inhibition call", "setting": "S. aureus RN4220", "value": "inactive"}]}, {"smiles": "C[C@H](CO)N1C[C@H](C)[C@@H](CN(C)Cc2ccc(C(F)(F)F)cc2)Oc2ccc(NC(=O)Nc3cccc4ccccc34)cc2C1=O", "values": [{"measurement": "cytotoxicity call", "setting": "HSkMC (human skeletal muscle cells)", "value": "inactive"}, {"measurement": "cytotoxicity call", "setting": "HepG2", "value": "inactive"}, {"measurement": "growth inhibition call", "setting": "S. aureus RN4220", "value": "inactive"}]}]}
